From article PMC4336329 (PLoS ONE, 2015)
Hit rate of the full screen: of about 310,000 compounds, about 2,200 (0.71%) showed an effect of 50% or more. The effect is printed as a negative number. Some of the results follow. Where a SMILES comes first, the peptide text is derived from it. The star is where a group is joined. Cbz = O=C(OCc1ccccc1)*

Target: human ether-à-go-go-related gene (hERG) potassium channel (human, UniProt Q12809)
Assay: primary screen, population patch clamp on CHO cells stably expressing hERG

human ether-à-go-go-related gene (hERG) potassium channel, sequence (Q12809 whole entry, looked up): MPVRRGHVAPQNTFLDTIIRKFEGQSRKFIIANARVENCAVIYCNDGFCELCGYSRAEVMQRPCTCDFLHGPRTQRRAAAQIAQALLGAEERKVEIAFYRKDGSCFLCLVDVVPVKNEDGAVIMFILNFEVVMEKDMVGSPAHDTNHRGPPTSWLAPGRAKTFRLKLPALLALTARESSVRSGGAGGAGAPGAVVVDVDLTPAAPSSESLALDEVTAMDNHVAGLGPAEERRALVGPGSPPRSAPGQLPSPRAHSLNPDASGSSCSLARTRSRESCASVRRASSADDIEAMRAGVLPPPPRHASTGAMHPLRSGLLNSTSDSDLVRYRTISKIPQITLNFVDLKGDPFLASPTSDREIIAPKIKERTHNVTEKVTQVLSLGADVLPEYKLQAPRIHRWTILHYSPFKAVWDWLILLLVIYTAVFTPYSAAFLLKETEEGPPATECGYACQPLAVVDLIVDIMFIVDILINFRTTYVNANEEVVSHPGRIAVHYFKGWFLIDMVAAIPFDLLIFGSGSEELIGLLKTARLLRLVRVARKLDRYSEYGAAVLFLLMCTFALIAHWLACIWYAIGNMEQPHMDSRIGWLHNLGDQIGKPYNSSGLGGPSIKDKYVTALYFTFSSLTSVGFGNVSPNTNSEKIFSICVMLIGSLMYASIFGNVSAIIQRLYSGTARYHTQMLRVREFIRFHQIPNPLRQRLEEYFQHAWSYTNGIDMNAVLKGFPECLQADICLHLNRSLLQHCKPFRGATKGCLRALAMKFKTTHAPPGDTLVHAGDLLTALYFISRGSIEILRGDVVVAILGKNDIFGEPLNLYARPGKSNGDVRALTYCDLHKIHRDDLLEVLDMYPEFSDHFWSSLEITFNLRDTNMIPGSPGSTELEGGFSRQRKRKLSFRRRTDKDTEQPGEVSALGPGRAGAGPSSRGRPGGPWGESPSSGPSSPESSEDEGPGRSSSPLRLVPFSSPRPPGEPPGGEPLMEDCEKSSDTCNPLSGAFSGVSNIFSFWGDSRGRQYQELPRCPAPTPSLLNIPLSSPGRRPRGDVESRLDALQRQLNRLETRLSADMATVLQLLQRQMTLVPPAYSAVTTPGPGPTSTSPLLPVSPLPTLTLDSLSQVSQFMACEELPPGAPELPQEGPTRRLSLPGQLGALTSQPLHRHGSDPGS

| Compound | hERG current change (%, negative = inhibition) at 1uM [%] |
| --- | --- |
| C=C1CCC(OC(C)=O)C2(C)CCC3C(C)C(=O)OC3C12O (stereo not shown) | 14.4 |
| Cc1n[nH]c(C)c1S(=O)(=O)N1CCCCCC1 | -7.64 |
| Cc1nn(C)cc1S(=O)(=O)N1CCN(Cc2ccc(F)cc2Cl)CC1 | 2.49 |
| COc1ccc(Cc2nc(-c3ccccn3)no2)cc1 | -0.526 |
| Cc1ccc(S(=O)(=O)N2[C@@H](c3ccc(F)cc3)C(C(=O)O)=CC[C@H]2c2cccs2)cc1 | 12 |
| Cc1ccc(S(=O)(=O)NC(=O)Nc2c(C)n(C)n(-c3ccccc3)c2=O)cc1 | 8.42 |
| COc1ccccc1C(=O)COC(=O)CSC(C)C(=O)Nc1cc(C)on1 (stereo not shown) | 4.85 |
| O=c1cc(O)c(-c2ccccc2Cl)c(Cl)[nH]1 | 7.7 |
| O=c1oc2ccccc2n1Cn1c(=O)oc2ccccc21 | 16.2 |
| O=C(Nc1nnc(Cc2ccccc2F)s1)Nc1ccccc1F | 15.2 |
| Cc1cccc(NS(=O)(=O)c2ccc(C(=O)NCC(C)(C)N3CCOCC3)cc2)c1C | -6.55 |
| CN(C)S(=O)(=O)c1ccc(N2CCCC2)c(C(=O)NC(c2ccccc2)c2ccccc2)c1 | 5.57 |
| O=C(Nc1ncccn1)C12CC3CC(CC(C3)C1)C2 | 5.79 |
| COCCNc1nc(-c2cc(C)c(C)cc2C)cs1.Cl | 7.44 |
| O=C(CN1C(=O)C2CCCCC2C1=O)Nc1ccc(OC(F)F)c(Cl)c1 (stereo not shown) | 7.77 |
| Cc1ccccc1N1C(=O)c2sc3nc4c(c(=O)n3c2C1=O)CCC4 | 11.4 |
| CCCOc1ccc(/C=C2\SC(=S)N(CC3CCCO3)C2=O)cc1 (stereo not shown) | 10.5 |
| COC(=O)[C@@]12CCCCN1[C@H](c1ccc(-c3cccc(Cl)c3)c(OC)c1)[C@@H]1C(=O)N(C)C(=O)[C@@H]12.O=C(O)C(F)(F)F | 16.5 |
| COc1ccc(CC(=O)Nc2ccccc2C(=O)N2CCOCC2)cc1 | 12.5 |
| CCc1ccc(C2CC(=O)N(c3ccc(F)cc3)C3=C2C(=O)OC3)cc1 (stereo not shown) | 4.29 |
| Cc1ccc(C)c(-c2cc(C(=O)NC3CC3)c3ccccc3n2)c1 | -32.5 |
| CCCOC(=O)CSc1nc(N2CCOCC2)c2c(c1C#N)CC(C)(C)OC2 | 1.98 |

| Compound | hERG current change (%, negative = inhibition) at 1uM [%] |
| --- | --- |
| CC(C)N1C(=S)SC(C)(C)C1n1oc(=O)n(-c2ccc(Cl)c(Cl)c2)c1=O (stereo not shown) | 5.15 |
| COC(=O)C1=C(c2ccccc2)C[C@@H]2CC[C@H]1N2C(=O)NCC1CC1 | 7.61 |
| COc1ccc(C2=NN(C(=O)CCC(=O)O)C(c3ccccc3OC)C2)cc1 (stereo not shown) | 14.3 |
| OC(COC(c1ccccc1)c1ccccc1)CN1CCN(c2ccccn2)CC1 (stereo not shown) | -73.5 |
| S=C(NCc1ccccc1)NCc1cccc(CNC(=S)NCc2ccccc2)c1 | 16.2 |
| COc1ccc(C(=O)CCC(=O)Nc2ccc(N3CCCCC3)cc2)cc1OC | 12 |
| CCC(O)C1CCN(C(=O)c2cc(COc3ccc(F)cc3F)on2)CC1 (stereo not shown) | 9.85 |
| OCC[C@@H]1C[C@H](O)[C@@H](O)[C@]2(CCc3ccccc3O2)O1 | 17.8 |
| CC(Sc1nnc(C(F)(F)F)n1C)C(=O)NC(N)=O (stereo not shown) | 4.18 |
| CNC(=O)/C(C#N)=C/c1c(N(Cc2ccccc2)Cc2ccccc2)nc2c(C)cccn2c1=O | 7.78 |
| O=C(N/N=C/c1ccc[nH]1)c1cccc(Br)c1 | 7.7 |
| Cc1ccc(COc2ccc(S(=O)(=O)N3CCCC3)cc2C(N)=O)cc1 | 17.1 |
| Cc1ccccc1S(=O)(=O)Cc1ccc(C(=O)N2CCN(c3cccc(C)c3C)CC2)o1 | 4.95 |
| Cn1c(=O)c2ncn(CC(=O)Nc3nc(-c4ccc(Cl)cc4)cs3)c2n(C)c1=O | 1.76 |
| Cn1cccc1C(=O)NC(=O)COC(=O)c1ccccc1O | 12.4 |
| CC(C)C(NC(=O)OCc1ccccc1)C(=O)NC(Cc1ccc(O)cc1)C(=O)O (stereo not drawn) (Cbz-Val-Tyr-OH; configuration not given here) | 5.45 |
| Cc1ccc(-n2c(C)cc(C(=O)OCC(=O)N(CC(C)C)C3CCS(=O)(=O)C3)c2C)cc1 (stereo not shown) | 11.8 |
| CCN(c1ccccc1)S(=O)(=O)c1ccc(OC)c(NC(=O)CCc2nc3ccccc3c(=O)[nH]2)c1 | -10.4 |
| CCN(CC)C(=O)CN(Cc1ccccc1)S(=O)(=O)c1ccc(F)cc1 | 10.1 |
| O=C(OCC(=O)c1ccc[nH]1)c1ccc(Cl)nc1 | 11.8 |
| C=CCn1c(COc2cccc(C)c2)nnc1SCC(=O)c1c[nH]c2c(CC)cccc12 | 17.4 |
| CC(C)C(=O)NC(=S)Nc1sc2c(c1C(N)=O)CCCC2 | 13.9 |

| Compound | hERG current change (%, negative = inhibition) at 1uM [%] |
| --- | --- |
| COC(=O)C1=C(C)N(Cc2ccccc2)C(=NCc2cc(OC)c(OC)c(OC)c2)N[C@H]1c1cccc(F)c1 | 6.19 |
| CCCCOc1ccc(C(=O)NCC2(c3ccc(OC)cc3)CCOCC2)cc1 | -3.75 |
| C/C(CC(=O)Nc1c(C)cc(C)cc1C)=N\NC(=O)Cc1ccccc1 | 9.93 |
| Clc1ccc(-c2csc3ncnc(N4CCc5ccccc5C4)c23)cc1 | 3.11 |
| CC1(C)CN=C(Nc2ccc(F)c(F)c2)S1 | 12.1 |
| N=Cc1c(O)n(-c2ccc(C34CC5CC(CC(C5)C3)C4)cc2)c(=O)[nH]c1=O | 3.34 |
| CS(=O)(=O)N(CC(=O)NC1CC2CCC1C2)c1cccc(C(F)(F)F)c1 (stereo not shown) | 6.4 |
| CS(=O)(=O)Nc1cccc(-c2cn3c(n2)SCC3)c1 | 24.6 |
| Cc1cccc(N2CCN(C(=O)Cn3ccc4ccccc4c3=O)CC2)c1C | 6.87 |
| CCOc1ccc(OCC)c(NC(=O)CSc2nc3cccnc3n2C)c1 | -1.35 |
| O=C(O)C(Cc1ccccc1)N1C(=O)/C(=C/c2cccnc2)SC1=S (stereo not shown) | 10.6 |
| COc1ccc(NC(=O)c2cc3c(s2)CCC(C)C3)cc1S(=O)(=O)N1CCOCC1 (stereo not shown) | 11.7 |
| Cc1cc(N(C)C)c(C#N)c(=O)[nH]1 | 12.4 |
| CC(=O)NNC(=S)NC(=O)c1cccc([N+](=O)[O-])c1 | 9.98 |
| O=S(=O)(c1ccccc1)N1CCN(S(=O)(=O)c2ccccc2)C1 | 9.03 |
| Cn1nc(C(=O)NC2=NCCS2)ccc1=O | 2.04 |
| CCn1c(=O)cc(SCC(=O)Nc2ccc(C)cn2)c2ccccc21 | 9.41 |
| CC(=O)c1ccc(NC(=O)CSc2nnc(Cc3cccn3C)n2-c2ccc(F)cc2)cc1 | 7.78 |
| CCOC(=O)CNC(=O)C1CCN(S(=O)(=O)c2ccc(-c3nn[nH]n3)cc2)CC1 | 10.7 |
| O=C(CCN1CCN(S(=O)(=O)c2ccc(Br)cc2)CC1)Nc1ccccc1F | -5.02 |
| Cc1ccc2c(c1)OC(c1ccc3c(c1)OCCO3)CC2=O (stereo not shown) | 16.7 |
| Cc1[nH]nc(SCC(=O)NCc2ccc(F)cc2)c1[N+](=O)[O-] | 13.6 |

| Compound | hERG current change (%, negative = inhibition) at 1uM [%] |
| --- | --- |
| CCn1cc(C(=O)NCCCN2CCCC(C)C2)c(=O)c2cc(S(=O)(=O)N(C)C3CCCCC3)ccc21 (stereo not shown) | -82 |
| COc1ccc(NS(=O)(=O)c2cccc(C(=O)OCC(=O)NC3CC3)c2)cc1 | 6.95 |
| CNC(=O)/C(C#N)=C/c1c(N2CCN(C)CC2)nc2c(C)cccn2c1=O | 13.7 |
| COC(=O)C1=C(c2ccc(OC(F)(F)F)cc2)C[C@@H]2CC[C@H]1N2C(=O)N1CCCCC1 | -1.61 |
| CCn1nccc1C(=O)Nc1ccc(Cl)cc1Cl | 11.3 |
| CCOCCN(C=O)c1cccc(OC)c1 | 8.37 |
| CCC1CCCCN1C(=O)c1cc(COc2ccc(-n3cncn3)cc2)on1 (stereo not shown) | -5.17 |
| COc1ccc([N+](=O)[O-])cc1N(CC(=O)NC1CCCCC1)S(C)(=O)=O | 11.9 |
| Cc1cccc(NC(=O)C2CCN(S(=O)(=O)c3c(C)noc3/C=C/c3ccco3)CC2)n1 | 6.22 |
| COc1ccc(CNC(=O)c2cnc(C)cn2)cc1 | 1.9 |
| O=c1[nH]c2ccccc2nc1/C=C(\O)c1cccs1 | 15.6 |
| COc1ccc(-c2cc(-c3ccc(F)cc3)nc(N3CCN(C)CC3)n2)cc1 | -1.76 |
| OCCC1CN(Cc2cccn2-c2nccs2)CCN1Cc1ccc(F)c(F)c1 (stereo not shown) | -85 |
| CC(CCc1ccc(O)cc1)N1CCC(Oc2ccc(C(=O)N3CCCC3)cc2)CC1 (stereo not shown) | -2.08 |
| O=C(CN1C(=O)/C(=C/c2cccc(Br)c2)SC1=S)N1CCCC1 | 12.9 |
| COC(=O)C1=C(C)NC2=C(C(=O)CCC2)C1c1cn(Cc2ccc(Br)cc2)nc1-c1ccccc1 (stereo not shown) | 6.28 |
| COc1cc([C@H]2[C@@H]3CCCC[C@]3(O)CCN2Cc2ccccc2F)ccc1O | -4.34 |
| CCC(=O)NNC(=O)c1cc(COc2cc(Cl)cc(Cl)c2)on1 | 17 |
| COc1cc(NS(=O)(=O)c2ccc(F)cc2)c(OC)cc1NC(C)=O | 10.1 |
